# Source: PubChem BioAssay AID588855 (National Center for Advancing Translational Sciences (NCATS), 2011)
# Out of some 410,000 compounds screened, about 5,000 (1.2%) were called active. The shares of active, inactive and inconclusive entries below differ from those in the screen. The call rests on the fitted dose curve; in most records, active means well fitted inhibition curve with a large enough effect; inconclusive means small, poorly fitted or top-dose-only effect; inactive means no such curve, though single readings can be large or run the other way. Potencies of inconclusive entries are doubtful fits and often do not repeat.
# Experiment: qHTS for Inhibitors of TGF-b; further: nearly all actives have a fitted effect of over 65% in size
# Settings: HepG2 CAGA-GFP TGF-b/SMAD3 reporter, GFP fluorescence, 18 h, TGF-beta stimulated, 500 pg/mL final; series mostly up to 46.1 µM; activity, negative = inhibition: at the top concentration
# Method in brief: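 Smad-responsive CAGA-GFP expression was quantified in HEPG2 cells exposed to compounds and 500 pg/mL final TGF-beta for 18 h at 37 degrees C; unstimulated wells defined full inhibition.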
# On the % scale 0 is the no-effect control and ±100 the full control effect; potency means the concentration at half of the fitted maximal effect; tags describe the fitted curve by direction and shape.
SMILES,"activity, negative = inhibition",Potency
COc1ccc(C2(c3ccc(OC)cc3)NC(=O)N(CC(=O)N(C)C)C2=O)cc1,inactive: 2.28%,
COc1ccc(S(=O)(=O)N(C)C[C@H]2Oc3ccc(NC(=O)Cc4cn(C)c5ccccc45)cc3C(=O)N([C@@H](C)CO)C[C@@H]2C)cc1,,"inconclusive: 0.501 µM [inhibitor, full curve, poor fit]"
O=C(CNCc1ccccn1)Nc1ccc([N+](=O)[O-])cc1C(=O)Nc1ccccc1F,,"inconclusive: 31.6 µM [inhibitor, single point]"
O=C([C@@H]1CC=C[C@@H]2CCN(C3CCCCC3)C(=O)[C@@H]21)N1CCN(c2ccccc2)CC1,,"inconclusive: 11.2 µM [inhibitor, partial curve]"
O=C(CCN1CCN(c2ccccc2F)CC1)Nc1cccc(F)c1,,"inconclusive: 15.8 µM [inhibitor, single point]"
Clc1cccc(CNc2cc(-c3ccccc3)nc3nncn23)c1,,"inconclusive: 35.5 µM [inhibitor, partial curve, poor fit]"
CCc1ccccc1NC(=O)N[C@H](C(=O)O)C(C)C,,"inconclusive: 5.01 µM [inhibitor, full curve, poor fit]"
Cc1cc(C)c(NC(=O)CCn2c(=O)c3cccn3c3cccnc32)c(C)c1,inactive: -2.38%,
COc1ccccc1CNc1nc(Nc2ccc(C)cc2C)c2sccc2n1,,"inconclusive: 35.5 µM [inhibitor, single point]"
C/C(=N\N(c1ccccc1)c1ccccc1)c1ccc(O)cc1,,"inconclusive: 11.2 µM [inhibitor, partial curve]"
CC1(C(=O)NC2CCN(Cc3ccccc3)CC2)CCN1Cc1ccc(OC(F)(F)F)cc1 (configuration not stated),,"inconclusive: 35.5 µM [inhibitor, single point]"
CC1CCCCN1S(=O)(=O)c1ccc(S(=O)(=O)N2CCCC2)cc1 (configuration not stated),inactive: 17.5%,
O=C(O)c1ccc(/C=N/N2CCN(Cc3ccccc3)CC2)cc1,,"inconclusive: 6.31 µM [inhibitor, single point]"
COc1ccc(OCC(=O)Nc2nnc3n2CCS3)cc1,inactive: 0.842%,
CCOC(=O)N1CCN(Cc2nc3cc(NC(=O)c4ccc(OC)cc4)ccc3n2C(C)C)CC1,,"inconclusive: 28.2 µM [inhibitor, single point]"
COc1ccc(C)cc1Nc1n[n+](-c2ccccc2)c(-c2c(Cl)cccc2Cl)s1,,"inconclusive: 11.2 µM [inhibitor, partial curve, poor fit]"
Cc1cc(C)nc(SCc2ccc(C(=O)NN=C3CCCC3)cc2)n1,,"inconclusive: 8.91 µM [inhibitor, partial curve, poor fit]"
CS(=O)(=O)N(Cc1nc(-c2ccc(F)cc2)no1)c1ccccc1Cl,,"inconclusive: 35.5 µM [inhibitor, single point]"
COc1ccc(OC)c(-c2csc(NC(=O)c3ccc(OCC4CCCO4)cc3)n2)c1 (configuration not stated),,"inconclusive: 14.1 µM [inhibitor, partial curve, poor fit]"
COc1ccc2oc(=O)c(C(=O)Nc3ccc(C(=O)O)cc3)cc2c1,inactive: 8.16%,
O=C(Nc1nc(-c2ccccc2)cs1)C1CCCCN1S(=O)(=O)c1ccccc1 (configuration not stated),,"inconclusive: 10 µM [inhibitor, partial curve, poor fit]"
O=C(CCC1CCCCC1)Nc1cc(C(F)(F)F)ccc1N1CCOCC1,,"inconclusive: 11.2 µM [inhibitor, partial curve, poor fit]"
FC(F)(F)Oc1ccc2c(c1)NC(c1ccncc1)=NC(c1cccs1)=N2,,"inconclusive: 35.5 µM [inhibitor, single point]"

SMILES,"activity, negative = inhibition",Potency
O=C(COc1ccc(Cl)cc1)Nc1ccc(C(=O)OCc2cc(=O)n3ccsc3n2)cc1,,"inconclusive: 35.5 µM [inhibitor, single point]"
COC(=O)c1ccc(OC(=O)/C=C/c2ccco2)cc1,inactive: 0.336%,
C=Cc1ccc(Cn2c(C)c(CNCCc3ccccc3C)c(C(=O)O)c2C)cc1,inactive: -1.97%,
CS(=O)(=O)c1cccc(NC(=O)C2CCCN2S(=O)(=O)c2ccc(F)cc2)c1 (configuration not stated),inactive: 2.27%,
O=C(NCC1CCN(c2ccc(S(=O)(=O)N3CCOCC3)cc2)CC1)c1cccc(Cl)c1,inactive: -15.8%,
CNC(=O)COc1coc(CN2CCN(c3ccc(F)cc3)CC2)cc1=O,inactive: 5.35%,
CCOC(=O)c1ccccc1NC(=O)CSc1nc(=O)[nH]c2c1CCC2,inactive: 19.1%,
O=C(NC(c1ccc(Cl)cc1)c1ccccn1)C1CCN(CCOc2ccc(Cl)cc2Cl)CC1 (configuration not stated),,"inconclusive: 25.1 µM [inhibitor, single point]"
Cc1ccc(C(=O)NCCc2nnc3ccc(SCC(=O)Nc4c(C)cc(C)cc4C)nn23)cc1,,"inconclusive: 35.5 µM [inhibitor, single point]"
Cc1cc(NC(=O)CS(=O)(=O)c2cn(Cc3ccc(F)cc3)c3ccccc23)no1,inactive: -26.9%,
COc1ccc(/C=C(/NC(=O)c2ccccc2)C(=O)N/N=C/c2cccs2)cc1OC,inactive: -3.89%,
C=C(c1ccccc1Cl)[n+]1ccccc1,inactive: -9.07%,
CCOC(=O)N1CCN(C(=O)c2ccc3c(c2)NC(=O)/C(=C/c2ccccc2)S3)CC1,,"inconclusive: 25.1 µM [inhibitor, single point]"
Cc1ccc(CSc2nnc(-c3ccc4c(c3)OCO4)o2)cc1,,"inconclusive: 3.98 µM [inhibitor, full curve, poor fit]"
O=C(CN1c2ccccc2Sc2ccccc21)NNC(=O)Nc1cccc(Cl)c1,,"inconclusive: 20 µM [inhibitor, partial curve, poor fit]"
CCOc1ccc(-n2nc(CO)c(C(=O)NCCCc3ccccc3)n2)cc1,,"inconclusive: 35.5 µM [inhibitor, single point]"
Cc1ccc(NC(=O)c2cc([N+](=O)[O-])ccc2NCc2cccnc2)cc1Cl,,"inconclusive: 35.5 µM [inhibitor, single point]"
CCCCCCn1cnc2c(c1=O)c1nc3ccccc3nc1n2Cc1cccs1,,"inconclusive: 35.5 µM [inhibitor, single point]"
O=C(c1ccc(Cl)c(S(=O)(=O)N2CCCC2)c1)N1CCN(c2ncccn2)CC1,,"inconclusive: 8.91 µM [inhibitor, partial curve, poor fit]"
CCOc1ccc(NC(=S)N2CCC(NC(=O)c3ccco3)CC2)cc1,inactive: -3.51%,
CCOc1ccc(NC(=O)CC2C(=O)N(c3ccc(C)cc3)C(=O)N2CCC2=CCCCC2)cc1 (configuration not stated),inactive: -7.14%,
Cc1nnc2n1N=CC=C(c1ccccc1)S2,,"inconclusive: 12.6 µM [inhibitor, single point]"
O=C(Nc1ccc(N2CCN(C(=O)c3cccs3)CC2)cc1)c1ccccc1F,inactive: -14.1%,

SMILES,"activity, negative = inhibition",Potency
CS(=O)(=O)N1N=C(c2ccco2)CC1c1ccccc1 (configuration not stated),,"inconclusive: 6.31 µM [inhibitor, single point]"
CC(=O)c1ccc2c(c1)C1C=CCC1C(c1cc3c(cc1Br)OCO3)N2 (configuration not stated),,"inconclusive: 25.1 µM [inhibitor, single point]"
COC(=O)c1cc(S(=O)(=O)NCc2cccc(OC)c2)cn1C,inactive: 0.839%,
Cc1ccc(-n2c(CCc3ccccc3)nnc2SCC(=O)NCc2ccccc2)cc1C,,"inconclusive: 0.631 µM [inhibitor, partial curve, poor fit]"
C=CCC1Cc2c(cccc2[N+](=O)[O-])C(CC=C)N1 (configuration not stated),inactive: 4.77%,
CCOC(=O)C1CCN(C(=O)Nc2ccc(NC(=O)C3CCN(C(=O)OCC)CC3)cc2)CC1,,"inconclusive: 35.5 µM [inhibitor, single point]"
COc1ccc(-c2[nH]c(-c3ccc(F)cc3)nc2SCC(=O)NC2CCCC2)cc1,,"inconclusive: 35.5 µM [inhibitor, single point]"
CCN(Cc1nc(-c2cccc(C)c2)no1)C(=O)c1ccc2c(c1)OCO2,inactive: -26.9%,
O=c1ccc(-c2ccccc2)nn1Cc1ccc(F)cc1Cl,,"inconclusive: 35.5 µM [inhibitor, single point]"
CCN=c1sc(C(=O)NCCc2ccccc2)cc(=O)n1CC,,"inconclusive: 17.8 µM [inhibitor, single point]"
CCOc1ccccc1NC(=O)Nc1ccc(Cl)cc1,,"inconclusive: 20 µM [inhibitor, partial curve, poor fit]"
COc1ccc(CCC(=O)NCCS(=O)(=O)N2CCN(c3ccccc3OC)CC2)cc1,,"inconclusive: 35.5 µM [inhibitor, single point]"
O=C(COc1cccc(Cl)c1)N/N=C\c1cc2ccccc2nc1Cl,inactive: 7.82%,
CCN(C(=O)CSc1nc2scc(-c3ccccc3)c2c(=O)n1N)C1CCS(=O)(=O)C1 (configuration not stated),,"inconclusive: 2.82 µM [inhibitor, partial curve, poor fit]"
Cc1cccc(OCCCCCn2ccnc2)c1,,"inconclusive: 35.5 µM [inhibitor, single point]"
Cc1ccccc1P(=O)(c1ccccc1)c1ccccc1C,inactive: 12.9%,
Cc1nn(C)c(C)c1CN(Cc1nc(-c2ccc(F)cc2F)oc1C)C1CC1,inactive: -25.9%,
Cc1ccc(S(=O)(=O)Nc2ccccc2C=Nc2cccc(C)c2C)cc1,,"inconclusive: 31.6 µM [inhibitor, single point]"
Cc1ccc(Cn2c(=S)[nH]c3ccccc3c2=O)cc1,,"inconclusive: 20 µM [inhibitor, single point]"
Cc1cc(NC(=O)C2CCN(S(=O)(=O)c3cccc4nsnc34)CC2)ccc1Br,,"inconclusive: 6.31 µM [inhibitor, single point]"
O=C(Nc1cccc(CNCCc2c[nH]c3ccccc23)c1)c1ccccc1Cl,,"inconclusive: 35.5 µM [inhibitor, single point]"
